The values below come from US20050043236A1 (published 2005).

In assay [1] the target is T1, human VEGF165 (human, UniProt P15692-4 27-191).
T1 construct: also called hVEGF165
T1 sequence (looked up): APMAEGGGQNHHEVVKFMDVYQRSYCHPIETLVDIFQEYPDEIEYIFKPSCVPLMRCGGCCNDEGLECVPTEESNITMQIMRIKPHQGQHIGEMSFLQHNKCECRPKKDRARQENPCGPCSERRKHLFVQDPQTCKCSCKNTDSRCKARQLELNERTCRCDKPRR
As to the kind of experiment: affinity determination for human VEGF-165 (method not named in Example 7).

Assay [2] addresses T1, human VEGF165. Description: kinetic dissociation from hVEGF165, as described in WO/0075319.
The target of assay [3] is T1, human VEGF165. As to the kind of experiment: BIAcore, half-life of dissociation.
In assay [4] the target is T1, human VEGF165. Description: BIAcore, as described in WO/0075319.
Assay [5] deals with T1, human VEGF165. Description: half-life of dissociation of the trap-hVEGF165 complex, as described in WO/0075319.

B1: VEGFR1R2.FcΔC1(a) (Fc fusion)
chain: SDTGRPFVEMYSEIPEIIHMTEGRELVIPCRVTSPNITVTLKKFPLDTLIPDGKRIIWDSRKGFIISNATYKEIGLLTCEATVNGHLYKTNYLTHRQTNTIIDVVLSPSHGIELSVGEKLVLNCTARTELNVGIDFNWEYPSSKHQHKKLVNRDLKTQSGSEMKKFLSTLTIDGVTRSDQGLYTCAASSGLMTKKNSTFVRVHEK[omitted - human IgG1 Fc]
notes: also called parent VEGF trap; VEGF trap
The molecule B1 gave a Kd with human VEGF165 [1] of 0.655 pM. Moreover, the values for the koff in the assay with human VEGF165 [1], with human VEGF165 [2] and with human VEGF165 [4] were 1.79e-05 s⁻¹, 5.51e-05 s⁻¹ and 4.23e-05 s⁻¹, respectively. In the assay with human VEGF165 [1], this molecule gave a kon of 2.73e+07 M⁻¹ s⁻¹. Also, the “T1/2” value with human VEGF165 [3] is 4.53 h; with human VEGF165 [5] it was 3.5 h.
